B1: His6-tagged Z18633 (designed binder)
chain: AEAKFAKEWQQAAHEIRWLPNLTFDQRVAFIHKLRDDPSQSSELLSEAKKLSESQAPK
notes: not shown: N-terminal His6 tag
B2: His6-tagged Z18633 (designed binder)
chain: AEAKFAKEWQQAAHEIRWLPNLTFDQRVAFIHKLRDDPSQSSELLSEAKKLSESQAPK
notes: Y5F, N52S, D53E and N-terminal AE; not shown: N-terminal His6-tag

Tests used:
[1] = target: T1, cynomolgus FcRn (Biorbyt, cat. no. orb99075) (cynomolgus, UniProt Q8SPV9 24-297; Q8SPW0 21-119, limits assumed); assay: Biacore, cFcRn immobilized (1098 RU), 90 nM His6-tagged Z variant, pH 6.0
T1 construct: Bought protein, immobilised on a CM5 chip; also called cFcRn
T1 sequence (Q8SPV9 24-297 limits assumed, chain 1 of 2): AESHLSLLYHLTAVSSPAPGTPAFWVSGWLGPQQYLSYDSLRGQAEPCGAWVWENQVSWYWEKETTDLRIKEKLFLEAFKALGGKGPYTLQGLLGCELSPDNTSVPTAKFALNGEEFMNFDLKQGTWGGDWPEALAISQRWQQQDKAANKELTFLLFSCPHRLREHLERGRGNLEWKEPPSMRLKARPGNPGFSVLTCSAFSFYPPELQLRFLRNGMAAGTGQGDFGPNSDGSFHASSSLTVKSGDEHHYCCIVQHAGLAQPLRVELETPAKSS
T1 sequence (Q8SPW0 21-119 limits assumed, chain 2 of 2, further chain): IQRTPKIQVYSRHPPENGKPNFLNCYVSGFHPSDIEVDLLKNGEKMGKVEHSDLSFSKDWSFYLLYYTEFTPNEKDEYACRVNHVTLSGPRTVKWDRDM

[2] = target: T2, human FcRn-eGFP on transduced HeLa cells (human, UniProt P55899 24-365; P16213 partial chain); assay: flow cytometry, hFcRn-eGFP HeLa cells, blocks Alexa647-hIgG, pH 6.0
T2 construct: Fixed, saponin-permeabilised HeLa cells; also called hFcRn-eGFP; hFcRn; not shown: eGFP at the cytoplasmic tail
T2 sequence (P55899 24-365, chain 1 of 2): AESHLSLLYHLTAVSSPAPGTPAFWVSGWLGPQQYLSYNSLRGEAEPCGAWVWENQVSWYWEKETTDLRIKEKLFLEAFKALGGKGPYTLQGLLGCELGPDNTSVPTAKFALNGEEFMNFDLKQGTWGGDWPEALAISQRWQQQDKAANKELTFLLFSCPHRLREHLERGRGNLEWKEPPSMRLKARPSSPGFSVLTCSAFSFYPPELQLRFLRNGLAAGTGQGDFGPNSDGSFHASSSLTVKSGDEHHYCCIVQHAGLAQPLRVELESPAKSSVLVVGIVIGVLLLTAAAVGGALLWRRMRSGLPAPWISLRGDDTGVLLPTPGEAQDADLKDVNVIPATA
T2 sequence (P16213 21-119, chain 2 of 2, further chain): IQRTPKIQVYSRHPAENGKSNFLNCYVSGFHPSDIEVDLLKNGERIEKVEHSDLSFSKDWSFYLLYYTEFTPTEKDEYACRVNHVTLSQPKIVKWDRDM

Row | Binder | binding result [1] | IC50 [2]
1 | B1 | binds | 
2 | B2 |  | 57 nM
